Where “and” joins values, the source holds several entries; their conditions need not be identical. Identical values can stand only once.
Tests used:
[1] = molecular target: liraglutide fibrils (human) (UniProt P01275); test: ELISA Assay (VI-B); 1.000 uM fibrils in 1600 uM soluble liraglutide; 50 nM antibody
[2] = molecular target: liraglutide fibrils (human) (UniProt P01275); test: ELISA Assay (VI-B); 0.0025 uM fibrils in 1600 uM soluble liraglutide; 50 nM antibody
[3] = molecular target: liraglutide fibrils (human) (UniProt P01275); test: ELISA Assay (III-B); row labelled 1 uM; two-step purified antibody; A450 ratio, mean of 3
[4] = molecular target: liraglutide fibrils (human) (UniProt P01275); test: ELISA Assay (III-B); row labelled 30 uM; two-step purified antibody; raw signal, mean of 3
[5] = molecular target: soluble liraglutide (human) (UniProt P01275); test: as above
[6] = molecular target: liraglutide fibrils (human) (UniProt P01275); test: ELISA Assay (III-B); row labelled 0.1 uM; two-step purified antibody; A450 ratio, mean of 3
[7] = molecular target: liraglutide fibrils (human) (UniProt P01275); test: ELISA Assay (III-B); row labelled 100 uM; two-step purified antibody; A450 ratio, mean of 3
[8] = molecular target: liraglutide fibrils (human) (UniProt P01275); test: ELISA Assay (III-B); row labelled 300 uM; two-step purified antibody; A450 ratio, mean of 3
[9] = molecular target: liraglutide fibrils (human) (UniProt P01275); test: ELISA Assay (III-B); row labelled 0.01 uM; two-step purified antibody; raw signal, mean of 3
[10] = molecular target: soluble liraglutide (human) (UniProt P01275); test: as above
[11] = molecular target: liraglutide fibrils (human) (UniProt P01275); test: ELISA Assay (III-B); row labelled 0.01 uM; two-step purified antibody; A450 ratio, mean of 3
[12] = molecular target: liraglutide fibrils (human) (UniProt P01275); test: ELISA Assay (VI-B); 1 uM fibrils in 1600 uM soluble liraglutide; 50 nM antibody; average of 4 experiments
[13] = molecular target: liraglutide fibrils (human) (UniProt P01275); test: ELISA Assay (VI-B); 25 uM fibrils in 1600 uM soluble liraglutide; 50 nM antibody; average of 4 experiments
[14] = molecular target: liraglutide fibrils (human) (UniProt P01275); test: ELISA Assay (VI-B); 2.5 uM fibrils in 1600 uM soluble liraglutide; 50 nM antibody; average of 4 experiments
[15] = molecular target: liraglutide fibrils (human) (UniProt P01275); test: ELISA Assay (VI-B); 0.001 uM fibrils in 1600 uM soluble liraglutide; 50 nM antibody; average of 4 experiments
[16] = molecular target: liraglutide fibrils (human) (UniProt P01275); test: ELISA Assay (VI-B); 0.0025 uM fibrils in 1600 uM soluble liraglutide; 50 nM antibody; average of 4 experiments

B1: Antibody M (Fc fusion)
scFv: DIQMTQSPSSLSASVGDRVTITCRASQSVAAAVAWYQQKPDKAPKLLIYSASFLYSGVPSRFSGSRSGTDFTLTISSLQPEDFATYYCQQHNTYPPTFGQGTKVEIKRTSPNSASHSGSAPQTSSAPGSQEVQLVESGGGLVQPGGSLRLSCAASGFNIKDTYIHWVRQAPGKGLEWVARISPSSGSTRYAGSVKGRFTISADTSKNTAYLQMNSLRAEDTAVYYCAREWYEASYYDWFDYFDFSDYWGQGTLVTVSSAAA[human IgG1 Fc not written out]GSHHHHHHKLDYKDHDGDYKDHDIDYKDDDDK
- Specificity Ratio (liraglutide fibril in mixture/soluble liraglutide) [1]: 46.6
- Specificity Ratio (liraglutide fibril in mixture/soluble liraglutide) [2]: 3.53 and 1.66 and 2.16
- Liraglutide fibril specificity (Liraglutide fibril/Liraglutide monomer) [3]: 3.21
- antibody binding signal (absorbance at 450 nm) [4]: 1.69
- antibody binding signal (absorbance at 450 nm) [5]: 0.1
- Liraglutide fibril specificity (Liraglutide fibril/Liraglutide monomer) [6]: 1.61
- Liraglutide fibril specificity (Liraglutide fibril/Liraglutide monomer) [7]: 13.1
- Liraglutide fibril specificity (Liraglutide fibril/Liraglutide monomer) [8]: 6.81
- antibody binding signal (absorbance at 450 nm) [9]: 0.06
- antibody binding signal (absorbance at 450 nm) [10]: 0.05
- Liraglutide fibril specificity (Liraglutide fibril/Liraglutide monomer) [11]: 1.39
- Specificity Ratio (liraglutide fibril in mixture/soluble liraglutide) [12]: 46.6
- Specificity Ratio (liraglutide fibril in mixture/soluble liraglutide) [13]: 46.6
- Specificity Ratio (liraglutide fibril in mixture/soluble liraglutide) [14]: 48.3
- Specificity Ratio (liraglutide fibril in mixture/soluble liraglutide) [15]: 1.43
- Specificity Ratio (liraglutide fibril in mixture/soluble liraglutide) [16]: 2.45
